Laboratory results from paper PMC12136788.
The list shows a part of the results.

T1: UNK ZnF1-3 (human, UniProt Q9C0B0 31-174)
T1 sequence: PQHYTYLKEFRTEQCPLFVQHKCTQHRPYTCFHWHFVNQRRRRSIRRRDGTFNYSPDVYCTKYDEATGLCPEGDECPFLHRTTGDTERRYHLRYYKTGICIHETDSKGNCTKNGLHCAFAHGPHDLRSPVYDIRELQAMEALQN

B1: chr21:34823002:34823003:-_ENSG00000142188_ENST00000542230|hu_hu|FALSE|FALSE (ssRNA)
RNA: GGGAGUUCUACAGUCCGACGAUCGUAUUAUAUACAUAUUAACAGUCUAUGCAAUGAAAAAUAAAGAAAUUUCAUAAAACUAUUUCAAAACUCAGAACAUAAAAAUGUAAAGAAACAAAACAUUUAAUGUACAAUCUACUCCAUCAACAGAGGAUUGAGCAUCA
B2: chr3:150289932:150289933:+_ENSG00000144895_ENST00000460851|hu_hu|hu_hu_hu_mus_False|28_98 (ssRNA)
RNA: GGGAGUUCUACAGUCCGACGAUCCUUGUAGUUUUUAACAUCCCACACUUCCAUUUGUCCUCGAAGAUUUCCAAAUCCAGCCAGCACUAAUAUAUGUCCAUGAGGGCUAUAGUAGGCUGCGUUGCGAGGACCAGUCCCAAAGUCCAACAGAGGAUUGAGCAUCA
B3: chrX:98862621:98862622:+_ENSMUSG00000034160_ENSMUST00000044475|mus_hu|mus_mus_mus_hu_False|38_38 (ssRNA)
RNA: GGGAGUUCUACAGUCCGACGAUCCUGCAUCUCCUUUAGAGUGUUUCCCAUAUUAGAGUAGGCAUCAGCAAAGGUAGGACUGAUUCGAAUAGCCUCCUUAUAGUGCAUCAGAGCUUCCUGCAGUUUUCCCUGCUGCUGCAGUACCAACAGAGGAUUGAGCAUCA
B4: chr10:84478880:84478881:+_ENSMUSG00000035620_ENSMUST00000095385|mus_mus|FALSE|FALSE (ssRNA)
RNA: GGGAGUUCUACAGUCCGACGAUCUUUCUUUGUUUUUAAAUAAAUAAAGUUACCAUUAAACUGAUGACAUAUGGUAGAAAGGUAGAACACACACACAAAUACACACAGAGACCCCAGUUUAAAACAUGUGACAUACGAAUGACCCAACAGAGGAUUGAGCAUCA
B5: chr5:64892317:64892318:-_ENSG00000113595_ENST00000231524|hu_hu|FALSE|FALSE (ssRNA)
RNA: GGGAGUUCUACAGUCCGACGAUCAGCUUGAGUAUUGAGGUAAUAAUGUUUCCACAAUGGUCUUAAUUUGUGUUUUCCACCUACAUCCCAAAUAGUGAAUUUUAGAUUUUUAUAUUCUACAGUUUCCACGUUAAAACCAAUUGUCAACAGAGGAUUGAGCAUCA
B6: chr19:16212804:16212805:+_ENSG00000167460_ENST00000300933|hu_mus|hu_hu_hu_mus_False|28_58 (ssRNA)
RNA: GGGAGUUCUACAGUCCGACGAUCAACAAUUCUGGAGUGAAGGAAAGAUGUAACAUGGAACAGCAUUAAAGCUCAGUAUUACUAUAUAUGGGCAACAAUGAUCACCCCCCAAGCAUUGCUUGGAAUGCUUAAAGACAAUCUGUUCAACAGAGGAUUGAGCAUCA
B7: 45823290_45823410_1853_3pUTR_ENSMUSG00000035551_ENSMUST00000044297|mouse|control|control (ssRNA)
RNA: GGGAGUUCUACAGUCCGACGAUCGAAACCCUGUCUCAAAAAACAAAAGCAAAAACAAAACCAAACCUAAAAGCGGGGAGAGGGCAGGAACCUGCUUUUCAGAAAGCUGAUAUUCUCCUGUUUAACUUUCCCCAUUAAGGCAGGCAACAGAGGAUUGAGCAUCA
B8: chr1:50642785:50642786:+_ENSG00000162374_ENST00000371827|hu_mus|motif|central (ssRNA)
RNA: GGGAGUUCUACAGUCCGACGAUCAGUGUUGAUGGCUUUCUCUGCAUCCUUUGGAUCAAUAUAGUUAACAAAUCCAUACCCGGAACUCUGUCCUGUGAUUUUGUCUCUCACGAGUUUGCAGGAUUCUAUUUCACCAAUGCUCCCCAACAGAGGAUUGAGCAUCA
B9: 5291315_5291435_1170_CDS_ENSG00000198081_ENST00000357006|human|control|control (ssRNA)
RNA: GGGAGUUCUACAGUCCGACGAUCUUUCUCAUGCUUCCUCAAUCUGCCUUCAUCAGAAAACGUCUUCCCACACGCCUGGCAGGCAAUCUGCUCCCGAUGGUGACCAUAAAGCAAAUACUCAAACUUCAUGUCACUGGCGGCUGUCAACAGAGGAUUGAGCAUCA
B10: 8611252_8611372_1238_CDS_ENSMUSG00000057880_ENSMUST00000065987|mouse|control|control (ssRNA)
RNA: GGGAGUUCUACAGUCCGACGAUCCUCCUCCUUGUGGAAGAAGCCCCCGGUCAUCAUUUUCUUGCUGAACGUCAUCACAUCGGCUGGGUCAUCCAAGCCCCAGUGUUCAUGGGCCCAGAACUUGCCUGUACAGCCUCCUCCGGUCAACAGAGGAUUGAGCAUCA
B11: chr12:28025581:28025582:-_ENSMUSG00000063632_ENSMUST00000079063|mus_hu|FALSE|FALSE (ssRNA)
RNA: GGGAGUUCUACAGUCCGACGAUCUCUCUUAAGAAAAAAAAAUAUCUCCACCAACUCCCUAGAGUAACAGUUGUGCUGCCAAAAGGGUCCUCUGCAGACGUCUUCCAGACUUCAAAGACCGACAAGCUUCAAACAGCGCCUUCCCAACAGAGGAUUGAGCAUCA
B12: chr6:114281168:114281169:-_ENSG00000196591_ENST00000368632|hu_hu|hu_hu_hu_mus_True|18_108 (ssRNA)
RNA: GGGAGUUCUACAGUCCGACGAUCUUCCAUUUUUCUGUAUAAACCAUAAUUUAGCAGCAAGUUAUGAGUCAUCCGGAUUCUAUGAGGCUUCAUGGGAUGACCCUGGCCAUAAUAAUAAUUUCCAAUAUCACCAUCAUAGUAGUACAACAGAGGAUUGAGCAUCA
B13: chr3:128532203:128532204:+_ENSG00000075785_ENST00000265062|hu_mus|FALSE|FALSE (ssRNA)
RNA: GGGAGUUCUACAGUCCGACGAUCACUGCAGCUUUCUGCGGAGGCCUUGGCCCGGUCAUUCUUGUCCAGUUUGAUGGGUUCAGGGAAUUCAUUGUACAGUUCCACUUCUGUUUCCUGUUUAAGGGCAUUCCGAGCAAUUGUCUGCAACAGAGGAUUGAGCAUCA
B14: chr16:32386223:32386224:+_ENSMUSG00000053774_ENSMUST00000115151|mus_mus|FALSE|FALSE (ssRNA)
RNA: GGGAGUUCUACAGUCCGACGAUCAAUACAAUUUGAAUGUGACUUUUGUUGGCAGAAAAAAAACCUCACAUCUGAAGAUUACUAGAAAUCUCUCUUAAUAACUGUUGUCGUAUGAACCAAAUUUGAAGGUCUUCCUCUUAGAGACAACAGAGGAUUGAGCAUCA

target: T1, UNK ZnF1-3; test: nsRBNS (natural sequence RNA bind-n-seq); RBNS binding buffer (assumed for nsRBNS): 25 mM Tris pH 7.5, 150 mM KCl, 3 mM MgCl2, 0.01% Triton X-100, 500 ug/ml BSA, 20 U/ml SUPERase-In, 4 C; UNK is unkempt and MSI1 is Musashi-1; names of the RNAs are library labels; protein concentration not given here; high values mean tight binding

**Q.** With B1 as the binder, how does the binding signal read?
**A.** 0.702 enrichment R

**Q.** Which binding signal does the source give for B2 here?
**A.** 0.961 enrichment R

**Q.** How did the binding signal turn out when B3 was run?
**A.** 1.07 enrichment R

**Q.** Which binding signal does the source give for B4 here?
**A.** 1.83 enrichment R

**Q.** For B5, which binding signal is on record?
**A.** 1.01 enrichment R

**Q.** With B6 as the binder, how does the binding signal read?
**A.** 1.09 enrichment R

**Q.** Which binding signal does the source give for B7 here?
**A.** 0.633 enrichment R

**Q.** Which binding signal does the source give for B8 here?
**A.** 0.536 enrichment R

**Q.** For B9, which binding signal is on record?
**A.** 1.09 enrichment R

**Q.** How did the binding signal turn out when B10 was run?
**A.** 0.925 enrichment R

**Q.** Which binding signal does the source give for B11 here?
**A.** 1.66 enrichment R

**Q.** Which binding signal does the source give for B12 here?
**A.** 1.06 enrichment R

**Q.** Which binding signal does the source give for B13 here?
**A.** 0.73 enrichment R

**Q.** B14 was tested. Which binding signal did it give?
**A.** 0.927 enrichment R
